Laboratory results reported in PubChem BioAssay AID360 (National Center for Advancing Translational Sciences (NCATS), 2006).
Among all 48,000 compounds or so, about 550 (1.1%) were called active. Inconclusive results (about 4%) are left out. Cut-off read from the data, not from the text of the source: active = potency below about 15 µM; inconclusive = mostly about 16 µM to 33 µM; inactive = weaker than that. This is one part of the list.

Molecular target: Lysosomal acid glucosylceramidase (Homo sapiens) (UniProt P04062)
Assay: Glucocerebrosidase;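 note: the screen sought inhibitors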
Details: purified enzyme, resorufin glucoside fluorescence (screen aimed at inhibitors), 20 min
How it was run: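 Wild-type enzyme at 0.2 nM final in 50mM citric acid/KH2PO4, 10mM sodium taurocholate, 0.01% tween-20, pH 5.9, with resorufin beta-D-glucopyranoside at 30 uM final. Compounds titrated, 20 min at RT, red fluorescence read; AC50 from titration.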
Potency is the fitted concentration of half-maximal effect.

Sequence of UniProt P04062 (P04062 whole entry, looked up): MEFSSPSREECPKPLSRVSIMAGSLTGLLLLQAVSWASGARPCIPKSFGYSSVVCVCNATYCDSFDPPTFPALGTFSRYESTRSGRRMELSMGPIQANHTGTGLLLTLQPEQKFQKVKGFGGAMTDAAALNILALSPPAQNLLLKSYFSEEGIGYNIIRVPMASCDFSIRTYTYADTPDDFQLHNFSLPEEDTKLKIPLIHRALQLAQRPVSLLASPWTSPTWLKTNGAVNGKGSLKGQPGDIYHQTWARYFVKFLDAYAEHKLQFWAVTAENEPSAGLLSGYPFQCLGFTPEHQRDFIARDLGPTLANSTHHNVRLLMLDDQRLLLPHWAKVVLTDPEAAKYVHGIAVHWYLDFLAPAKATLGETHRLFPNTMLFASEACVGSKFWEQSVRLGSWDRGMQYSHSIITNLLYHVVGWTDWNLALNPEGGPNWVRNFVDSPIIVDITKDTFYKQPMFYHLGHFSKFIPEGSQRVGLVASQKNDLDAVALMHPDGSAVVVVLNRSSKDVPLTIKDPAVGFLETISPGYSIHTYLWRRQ

Potency, inactive:
CCc1n[nH]c2c1/C(=N/O)CCC2 > 76.9 µM, Cc1ccc(S(=O)(=O)NCCNC(=O)C2CCCNC2=O)cc1 (centres undefined) > 76.9 µM, CCC(Sc1nc(C)cc(=O)[nH]1)C(=O)Nc1nc2c(s1)CCCC2 (centres undefined) > 76.9 µM, O=C(NCc1ccccc1F)C1CCN(C(=O)NCc2ccccc2)CC1 > 76.9 µM, CCOc1ccc(NC(=O)C2CC(=O)N3CCCN=C3S2)cc1 (centres undefined) > 76.9 µM, O=C(CSc1ccccc1C(=O)NCCCN1CCCC1=O)NCc1ccco1 > 76.9 µM, CC(=O)Nc1ccc(OCC(O)CN2CCN(Cc3ccccc3)CC2)cc1 (centres undefined) > 76.9 µM, CC1CN(C(=O)C(C)Sc2nc3ccccc3s2)CC(C)O1 (centres undefined) > 76.9 µM, CN(C)S(=O)(=O)c1cccc(C(=O)OCC(=O)Nc2ccccc2OC(F)F)c1 > 76.9 µM, O=C(O)Cn1cc2c(n1)CCCC2 > 76.9 µM, COc1cccc(C(=O)N(CN2CCCC2=O)c2ccccc2OC)c1 > 76.9 µM, COc1ccc(CCn2nnnc2C(CC(C)C)N2CCC(C(N)=O)CC2)cc1OC (centres undefined) > 76.9 µM, O=C(CN1CCCCCC1)NCCc1ccc(F)cc1 > 76.9 µM, COc1ccc(F)cc1CN1CCN(c2cc(C)nc3c4c(C)cc(C)nc4nn23)CC1 > 76.9 µM, Cc1ccnc(NS(=O)(=O)c2ccc(NC(=O)C3CCCCC3C(=O)O)cc2)n1 (centres undefined) > 76.9 µM, O=C1CC(N2CCC(c3nc4ccccc4o3)CC2)C(=O)N1c1ccc(Cl)cc1 (centres undefined) > 76.9 µM, CCN(CCCNC(=O)COc1cc(=O)n(CC)c2ccccc12)Cc1ccccc1 > 76.9 µM, CCN(CC)C(=O)c1cc(-c2ccc(Br)cc2)on1 > 76.9 µM, O=C(COc1ccc(S(=O)(=O)N2CCc3ccccc32)cc1Cl)NCc1ccccn1 > 76.9 µM, CC(C)Oc1ccc(CNCC2(O)CCOC(C)(C)C2)cc1 (centres undefined) > 76.9 µM, Cc1ccc(N(CC(=O)NCc2ccc3c(c2)OCO3)S(C)(=O)=O)cc1 > 76.9 µM, C=CCN(C(=O)CSc1nc2[nH]ncc2c(=O)n1-c1ccccc1OC)c1ccccc1 > 76.9 µM, O=C(CN1CCN(C(=O)c2cccc(F)c2)CC1)NC1CCCCC1 > 76.9 µM, COc1ccc(CCNC(=O)C2CCN(S(=O)(=O)c3c(C)noc3C)CC2)cc1OC > 76.9 µM, Cc1nn(-c2ccc(F)cc2)c2nc(N)c(C#N)c(-c3cccs3)c12 > 76.9 µM, CN(C)c1ccc(C(=O)OCC(=O)c2cccs2)cc1 > 76.9 µM, COc1ccccc1-c1nnc2sc(COc3ccc(Cl)cc3)nn12 > 76.9 µM, O=C(CCNc1cccc(Cl)c1)c1ccco1 > 76.9 µM, CCOc1nc(Nc2ccc(-c3nc4ccccc4o3)cc2)nc(N2CCOCC2)n1 > 76.9 µM, Cn1c2ccc(F)cc2c2ncn(CCN3CCOCC3)c(=O)c21 > 76.9 µM, O=C(Nc1nc(-c2cccnc2)cs1)c1ccc(S(=O)(=O)N2CCOCC2)cc1 > 76.9 µM, CC(=O)Oc1ccc(N(C(C)=O)S(=O)(=O)c2cccs2)cc1 > 76.9 µM, COc1ccc2nc(C)cc(C(=O)O)c2c1 > 76.9 µM, CCCn1cnc2cc(NCc3cccc(OC)c3)ccc21, Cc1cc(=O)n2c(C)n[nH]c2n1 > 76.9 µM, Cn1c(=O)c2c(nc(Oc3ccccn3)n2C)n(C)c1=O > 76.9 µM, Cc1cc(N2CCN(C(=O)c3ccco3)CC2)n2ncnc2n1 > 76.9 µM, Cc1cc(C)nc(NC(=O)Nc2ccccc2C(F)(F)F)n1 > 76.9 µM, O=C(COc1ccccc1)N1CCN(C(=O)c2cccs2)CC1 > 76.9 µM, Cc1ccc2cc(CN(Cc3ccc4c(c3)OCO4)Cc3nnnn3Cc3ccco3)c(=O)[nH]c2c1 > 76.9 µM, COc1ccc(-n2c(C)cc(C(=O)Cn3c(NCCO)nc4ccccc43)c2C)cc1, C=CCc1c(C)[nH]c(=S)c(C#N)c1C > 76.9 µM, Cc1cc(C)cc(NC(=O)CSc2nnc(-c3ccccc3C)o2)c1 > 76.9 µM, Clc1cc(Cl)c2nc(N3CCCCC3)sc2c1 > 76.9 µM, N#Cc1c(N)sc(=S)c2c1CCCC2 > 76.9 µM, CCOC(=O)N1CCN(C(=O)c2ccc(Cl)c(S(=O)(=O)N3CCOCC3)c2)CC1 > 76.9 µM, Cc1cnc(C(=O)Nc2cccc(-c3nnc4n3CCCCC4)c2)cn1 > 76.9 µM, CCOC(=O)C1=C(C)NC(=O)NC1c1ccccc1Cl (centres undefined) > 76.9 µM, O=C(Cn1c(=O)oc2ccccc21)N1CCCCC1 > 76.9 µM, COc1ccc(CCC2(C)NC(=O)NC2=O)cc1 (centres undefined) > 76.9 µM, Cc1ccnc(NC(=O)Nc2ccc3c(c2)N(C)C(=O)CS3)c1 > 76.9 µM, CN(C)c1ccc(-c2nnn(CC(=O)Nc3ccccc3N3CCOCC3)n2)cc1 > 76.9 µM, COc1ccc(CCNC(=O)COc2ccc(S(=O)(=O)N3CCOCC3)cc2)cc1 > 76.9 µM, O=C(NCC1CCCO1)c1cccc(Br)c1 (centres undefined) > 76.9 µM, Cc1cc(C)c(NC(=O)CN2C(=O)NC3(CCCCC3)C2=O)c(Cl)c1 > 76.9 µM, O=C(c1ccco1)n1c(=S)nc2ccccn21 > 76.9 µM, O=C(Nc1ccc2c(c1)oc1ccccc12)c1ccc2c(c1)OCO2 > 76.9 µM, Nc1c(N2CCCCC2)c(=O)[nH]c(=O)n1-c1ccccc1 > 76.9 µM, CCC(=O)N1Cc2ccccc2-c2ccccc2C1=O > 76.9 µM
